The structures appear in SMILES notation. Structures can show the parent of a compound that is named as a salt. In all, about 2,800 compounds were measured (“cell viability relative to vehicle”: median about 1.1, lowest 2% from about 0.19 on). This is one part of the list.

For this test, the system named is NCI-H2228 parental. Put plainly: cell viability relative to vehicle (fraction of vehicle); NCI-H2228 is an ALK-positive lung cancer line and DTP means drug-tolerant persister; higher = less growth inhibition. The settings on record: 100 nM; treatment time 6 days. The gist of the method:
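Each value is viability relative to vehicle-treated cells, measured as ATP with the CellTiter-Glo 3D Cell Viability Assay. Parental NCI-H2228 cells and drug-tolerant persisters (1000 nM targeted drug, 13 days) in 384-well plates received the 3114-agent TargetMol anti-cancer compound library at 100 nM, or DMSO, and were read 6 days later.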
Turning to `CC(C)NCC(O)c1cc(O)cc(O)c1` (centres undefined) [Orciprenaline sulfate], the cell viability worked out at 0.856. Under `CC(=O)/C(C)=N/O` [2,3-Butanedione 2-Monoxime] stands 1.13; under `O=C1/C(=C/c2ccc(O)cc2)Oc2cc(O)ccc21` [Hispidol], 1.13. Take `O=C(O)CN(CCN(CC(=O)O)CC(=O)O)CCN(CC(=O)O)CC(=O)O` [Pentetic Acid]: the cell viability turned out to be 1.1. Under `C#CCN(C)CCCOc1ccc(Cl)cc1Cl` [Clorgyline hydrochloride] stands 1.03. To `CC(=O)NCCC(=O)O` belongs 0.856; to `COc1ccc2[nH]c(C(=O)c3ccccc3)cc2c1`, 0.197; to `O=C(/C=C/C=C/c1ccc2c(c1)OCO2)N1CCCCC1` [Piperine], 1.07. To `O=C(O)C(S)=Cc1c[nH]c2ccc(F)cc12` belongs 0.99; to `O=c1c2ccccc2nc2n1CCc1c-2[nH]c2ccccc12` [Rutaecarpine], 1. In the case of `OC[C@H]1O[C@@H](n2cnc3c2N=CNC[C@H]3O)C[C@@H]1O` [Pentostatin], the cell viability stood at 1.14. To `CN(C)c1ccccc1CN1CCCN(Cc2ccccc2N(C)C)C1c1ccncc1` belongs 1.04; to `CCN(CC)Cc1cc(Nc2ccnc3cc(Cl)ccc23)ccc1O` [Amodiaquine hydrochloride], 1.23. To `C[C@H](CCOc1cccc(CC(=O)O)c1)N(Cc1cccc(C(F)(F)F)c1Cl)CC(c1ccccc1)c1ccccc1` belongs 1.02. On to `COc1ccccc1N1CCN(CCCNc2cc(=O)n(C)c(=O)n2C)CC1` [Urapidil hydrochloride], for which the cell viability came to 1.1. Under `COc1ccccc1N1CCN(CCCNc2cc(=O)n(C)c(=O)n2C)CC1` [Urapidil] stands 1.08. To `O=C(Nc1cccc(Nc2ncc(Br)c(NCCc3cnc[nH]3)n2)c1)N1CCCC1` belongs 1.3; to `COc1nc(N)nc2c1ncn2[C@@H]1O[C@H](CO)[C@@H](O)[C@@H]1O` [Nelarabine], 1.08; to `COc1cccc(-c2cc(F)ccc2[C@H]2Cc3nc(N)nc(C)c3C(=O)N2)n1`, 0.171. To `CN(C)CCCn1cc(C2=C(c3c[nH]c4ccccc34)C(=O)NC2=O)c2ccccc21` [Bisindolylmaleimide I] belongs 1.07; to `O=C1CCC(N2C(=O)c3ccccc3C2=O)C(=O)N1` (centres undefined) [Thalidomide], 1.01. For `c1cn2cc(-c3ccc4cn[nH]c4c3)nc(Nc3ccc(N4CCOCC4)cc3)c2n1` [Entospletinib], the cell viability is 0.904. To `C[C@H](CCC(=O)NCCS(=O)(=O)O)[C@H]1CC[C@H]2[C@@H]3[C@@H](O)C[C@@H]4C[C@H](O)CC[C@]4(C)[C@H]3CC[C@]12C` [Tauroursodeoxycholic Acid] belongs 1.23. To `Cc1nc2n(c(=O)c1CCN1CCC(c3noc4cc(F)ccc34)CC1)CCCC2O` (centres undefined) [Paliperidone] belongs 1.17. To `C=CCn1c(=O)c2cnc(Nc3ccc(N4CCN(C)CC4)cc3)nc2n1-c1cccc(C(C)(C)O)n1` [Adavosertib] belongs 0.752; to `CC(=O)OCC1=C(C(=O)O)N2C(=O)[C@@H](NC(=O)Cc3cccs3)[C@H]2SC1` [Cephalothin sodium], 1.03; to `O=C(Nc1cccc2cccnc12)c1ccc(N2C(=O)[C@@H]3[C@H](C2=O)[C@@H]2C=C[C@H]3C2)cc1` [IWR-1-endo], 1.09. On to `COc1c(O)cc2oc3cc(O)c(CC=C(C)C)c(O)c3c(=O)c2c1CC=C(C)C` [Mangostin], for which the cell viability was 1.14.

Take `CC1(C)S[C@@H]2[C@H](NC(=O)Cc3ccccc3)C(=O)N2[C@H]1C(=O)O` [Penicillin G sodium salt]: the cell viability was 1.3. To `CCCCc1nc(Cl)c(CO)n1Cc1ccc(-c2ccccc2-c2nnn[nH]2)cc1` [Losartan] belongs 1.27. To `CCCCc1nc(Cl)c(CO)n1Cc1ccc(-c2ccccc2-c2nnn[nH]2)cc1` [Losartan potassium] belongs 1.02; to `OC[C@H]1O[C@@H](Oc2ccc3c(c2)OC[C@H]2c4cc5c(cc4O[C@@H]32)OCO5)[C@H](O)[C@@H](O)[C@@H]1O` [Trifolirhizin], 1.02; to `O=C(O)CCNC(=O)c1ccc(/N=N/c2ccc(O)c(C(=O)O)c2)cc1` [Balsalazide disodium salt dihydrate], 1.05. Under `CCOc1cc(N)c(Cl)cc1C(=O)NCC1CN(Cc2ccc(F)cc2)CCO1` (centres undefined) [Mosapride Citrate] stands 0.96.

For `COC(=O)[C@H](CCSC)NC(=O)c1ccc(NC[C@@H](N)CS)cc1-c1ccccc1` [FTI 277 hydrochloride], the cell viability amounted to 0.897.

Take `Cc1cccc(Nc2ccccc2C(=O)O)c1C` [Mefenamic acid]: the cell viability was found to be 1.1. Under `CCC(C)n1ncn(-c2ccc(N3CCN(c4ccc(OCC5COC(Cn6cncn6)(c6ccc(Cl)cc6Cl)O5)cc4)CC3)cc2)c1=O` (centres undefined) [Itraconazole] stands 0.989; under `C[n+]1ccccc1/C=N/O` [Pralidoxime Chloride], 1.05; under `CN(C)CCNC(=O)c1cccn2c(=O)c3cc4ccccc4cc3nc12`, 0.847. Consider `Cc1c(CN2CCN(c3cccc(C(F)(F)F)c3)CC2)cc(-c2ccccc2)n1NC(=O)c1ccncc1` [Sudoterb free base], for which the cell viability stood at 1.05. Under `C[C@H]1[C@H](OC(=O)CCC(=O)O)O[C@@H]2O[C@@]3(C)CC[C@H]4[C@H](C)CC[C@@H]1[C@@]24OO3` [Artesunate] stands 1.18; under `O=C(CNc1ccc2ccccc2c1)N/N=C/c1cc(Br)c(O)c(Br)c1O`, 1.05. Under `Cc1ccsc1C(=CCCN1CCC[C@@H](C(=O)O)C1)c1sccc1C` [Tiagabine] stands 0.877; under `O=C1c2c(O)cc(O)cc2O[C@H](c2cc(O)c(O)c(O)c2)[C@H]1O` [Dihydromyricetin], 1.03.

Regarding `CNCCCN1c2ccccc2CCc2ccccc21` [Desipramine hydrochloride], the cell viability worked out at 1.11. To `Cc1cc(C)c(CNC(=O)c2cc(-c3ccc(N4CCN(C)CC4)nc3)cc3c2c(C)cn3C(C)C)c(=O)[nH]1` belongs 1.28. Under `O=C(O[C@@H]1Cc2c(O)cc(O)cc2O[C@H]1c1cc(O)c(O)c(O)c1)c1cc(O)c(O)c(O)c1` [(-)-Gallocatechin gallate] stands 1.07; under `CC(C)(C(=O)NCC(F)(F)C(F)(F)F)C(=O)N[C@@H]1C(=O)Nc2ccccc2-c2ccccc21`, 1.16.

On to `O=c1[nH]cnc2c1ncn2[C@H]1CC[C@@H](CO)O1` [Didanosine], for which the cell viability was determined as 1.11.

Source of the values: the supplement of paper PMC10600219.
